This is one part of the list.
target: T1, OsWOX13 (Oryza sativa, UniProt Q5QMM3 1-267); assay: protein-binding microarray (RPBM); PBS, 2% BSA, 51.3 ng/ul salmon testes DNA, 50 uM zinc acetate, 200 nM TF, 25 C, 1 h; high values mean tight binding; settings: protein: recombinant; tags: N-terminal polyhistidine and DsRed monomer fusion (pET32a); label: CyDye5-dUTP incorporated in the synthesized complementary strand; 3' TTTTT single-stranded linker to array surface; dsDNA, one strand shown
T1 sequence: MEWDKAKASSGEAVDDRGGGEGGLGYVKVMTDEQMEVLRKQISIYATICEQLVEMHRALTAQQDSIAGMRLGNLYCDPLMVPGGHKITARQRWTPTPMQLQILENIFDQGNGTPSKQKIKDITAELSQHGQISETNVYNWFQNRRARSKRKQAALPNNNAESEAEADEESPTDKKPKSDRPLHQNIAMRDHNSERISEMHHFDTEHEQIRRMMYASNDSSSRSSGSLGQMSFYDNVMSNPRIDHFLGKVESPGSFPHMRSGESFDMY
In short: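 The binding signal is fluorescence intensity per feature, in arbitrary units, read on an Axon 4000B scanner. Polyhistidine- and DsRed-tagged transcription factors (N-terminal fusions) from E. coli BL21-CodonPlus were purified on Ni–NTA and applied at 200 nM for 1 h at 25 °C to a double-stranded, BSA-blocked custom Agilent array in buffer with 50 µM zinc acetate.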

Sequence | binding signal
CATCAAATTACGGAAGCCATAATCCAAGGCCATGGAATCACGGAGTCACCTAGTGCAG | 4000 fluorescence intensity (a.u.)
TTGACATTCTTTATTTATTTAAATTAATTTAGATAAAGTTCGGAGTCACCTAGTGCAG | 13000 fluorescence intensity (a.u.)
CCTTAATTATAATCCATGTAGACGTCAACGTATGATAAAGCGGAGTCACCTAGTGCAG | 34000 fluorescence intensity (a.u.)
AGAGATGAGATTAGGATGATTGGCATGTGAGCTGATATTTCGGAGTCACCTAGTGCAG | 32300 fluorescence intensity (a.u.)
GATGTAATTTCTTAGAATTGAGCGCTTGTCAATACTTATTCGGAGTCACCTAGTGCAG | 10100 fluorescence intensity (a.u.)
AAATGGCCGTTGATTGACTTGAGGAGAAATAGTTCTTCCTCGGAGTCACCTAGTGCAG | 36300 fluorescence intensity (a.u.)
TGTAAATTGTTTTCTATTTGTTAATATCAAGTAGCACACACGGAGTCACCTAGTGCAG | 12800 fluorescence intensity (a.u.)
AAAATTATTAGCACATGATTAATTAAGTTTTAATTAATACCGGAGTCACCTAGTGCAG | 22700 fluorescence intensity (a.u.)
GAGTATATATGACATGTCTAATTGAGGGTGTCTAACGTAACGGAGTCACCTAGTGCAG | 7540 fluorescence intensity (a.u.)
TCTGATGGATAAGGTCAGTTGGGAATTCTTCAAACTTCAACGGAGTCACCTAGTGCAG | 12600 fluorescence intensity (a.u.)
AATAATAGAAGATTAGCTATTACATTGGTTATAAATGATTCGGAGTCACCTAGTGCAG | 11200 fluorescence intensity (a.u.)
GCAAAATAAATATAGATAGAAAATTAGGATTTATGTCAAGCGGAGTCACCTAGTGCAG | 5930 fluorescence intensity (a.u.)
GTCATTTGATTTATTTTACATATTCTCTAGATGGCTGTGACGGAGTCACCTAGTGCAG | 6590 fluorescence intensity (a.u.)
AAAATAGTTAATACTCAATTAATCATGAGCTAATGGCTCACGGAGTCACCTAGTGCAG | 9240 fluorescence intensity (a.u.)
GTTAATTGGCCTAACGTCCTAAACTGGACAACGCGCATTGCGGAGTCACCTAGTGCAG | 37200 fluorescence intensity (a.u.)
CAACCACCTCATCATCATCATTATAATCAAGATCATTACCCGGAGTCACCTAGTGCAG | 3440 fluorescence intensity (a.u.)
CCGTATAAATTGCCTGTATGCTAAATAGAACCACTTTACACGGAGTCACCTAGTGCAG | 9050 fluorescence intensity (a.u.)
GGCAAATTAGCTGGCTAAGCTGGCTATTACTAGTAGCTTTCGGAGTCACCTAGTGCAG | 11500 fluorescence intensity (a.u.)
TGCACACCCTGTCATGAACTAATTAGCTCGATCATCACACCGGAGTCACCTAGTGCAG | 11700 fluorescence intensity (a.u.)
AAGTGATTAAATTGGCACTATAAACATGTAGTTTTGTAATCGGAGTCACCTAGTGCAG | 27500 fluorescence intensity (a.u.)
TGAGAGTGGCATTTAATTGAATCCTATTATGATGGTGGCACGGAGTCACCTAGTGCAG | 16100 fluorescence intensity (a.u.)

Sequence | binding signal
TATAATTATTTCATATTTTATCTACTCCCAATGCTTTGCCCGGAGTCACCTAGTGCAG | 27000 fluorescence intensity (a.u.)
GGTTTTGATATATATAATCTCCTGGAACTGATATCCTGAACGGAGTCACCTAGTGCAG | 5480 fluorescence intensity (a.u.)
TAATCATAGACTAATTAGGCTCAAAAGATTCGTCTAGTGACGGAGTCACCTAGTGCAG | 3390 fluorescence intensity (a.u.)
GTTAAATTTAAACTTGTATATTTGTGAAGTGATACATCACCGGAGTCACCTAGTGCAG | 17300 fluorescence intensity (a.u.)
ACATGTGATTGGCACAGAAGGATAAATCCTCAACTTTCAACGGAGTCACCTAGTGCAG | 20200 fluorescence intensity (a.u.)
ATGTTACATGTAACTAAACTAATTTAATCTCGTAGATGTACGGAGTCACCTAGTGCAG | 7890 fluorescence intensity (a.u.)
TTGACCAATCAATTACTCACTGGTACGGAAAACACTATAGCGGAGTCACCTAGTGCAG | 23300 fluorescence intensity (a.u.)
TTCAATTGACGTCATAGAATCTATGGCATTAGACACATCTCGGAGTCACCTAGTGCAG | 9210 fluorescence intensity (a.u.)
CACAGTTGACGAGCTAGATCCAGATGAGTGAGGTTGTGAGCGGAGTCACCTAGTGCAG | 4960 fluorescence intensity (a.u.)
ACCTATTACCGTTTAAATTGGAAGATAGATATTGGATGAGCGGAGTCACCTAGTGCAG | 19600 fluorescence intensity (a.u.)
AAATAATTGTAATTCTAGAGTACTAATTGCCCCATCAATCCGGAGTCACCTAGTGCAG | 34700 fluorescence intensity (a.u.)
CGCTGCGCTAATCACGCGCGGTCAGACGTTGACTACCATGCGGAGTCACCTAGTGCAG | 7420 fluorescence intensity (a.u.)
GTGCAGATTATAATTTGATTACTAATTTAGGAGAGGAAATCGGAGTCACCTAGTGCAG | 29500 fluorescence intensity (a.u.)
GCTTAATCAATCACCTCATCACACACTCTTAGCTAAGCTACGGAGTCACCTAGTGCAG | 38400 fluorescence intensity (a.u.)
TGTCATGTCTAATATAAATTTATTTGAGATCTATAGGTAACGGAGTCACCTAGTGCAG | 14400 fluorescence intensity (a.u.)
CATCATCTGATCTGATGATCAATCAAAATCTCCTACTAGTCGGAGTCACCTAGTGCAG | 13500 fluorescence intensity (a.u.)
ATAAGTTAATTTTCATTTGTTGGTCAACTGCAATATTTGACGGAGTCACCTAGTGCAG | 7110 fluorescence intensity (a.u.)
AAAACTCAATTAATTATACATTAATACCACCTTATTTTACCGGAGTCACCTAGTGCAG | 20000 fluorescence intensity (a.u.)
TCAGCTTCATAATTATCTCAGTAACAGAACTGAACACATTCGGAGTCACCTAGTGCAG | 7150 fluorescence intensity (a.u.)
CAGTTCCAATCACACAACGCGACTGGCCACACCGGATGTGCGGAGTCACCTAGTGCAG | 15600 fluorescence intensity (a.u.)
AATTAAATAGATTAACACAAACATGAACCCAACATGACCACGGAGTCACCTAGTGCAG | 29700 fluorescence intensity (a.u.)

From paper PMC7819943, “Rice protein-binding microarrays: a tool to detect cis-acting elements near promoter regions in rice”
